The series concerns the molecule itself. Description: gel filtration; self-association.

The values that follow come from patent US20140017269A1 (CHILDREN S HOSPITAL MEDICAL CENTER, published 2014).

B1: Glutathione S-transferase (GST) of Schistosoma japonicum (enzyme)
chain: not shown
notes: Released from GST fusion proteins by thrombin; ~26 kDa monomer, found as a ~52 kDa dimer by gel filtration; also called free GST
With B1, the binding result is reported as “binds”.
